Data on 2 substances can be found in patent US12064407B2 (priority 2017, dated 2024).

This experiment relates to ERVK Env. It counts as cell-based, human.

Regarding TNFα, the “Env protein expression in SVGA cells” value is reported as “not induced”.
As to “LIGHT: lymphotoxin-like inducible member of the TNF superfamily protein, pro-inflammatory cytokine”, the “Env protein expression in SVGA cells” value was “not induced”.
